Whole data set: some 33,000 sequences, median “E-score (-0.5 to 0.5)” near -0.021, cut for the highest 2% near 0.32. This is one part of the list.
Molecular target: T1, Zap1 (UniProt P47043)
T1 sequence: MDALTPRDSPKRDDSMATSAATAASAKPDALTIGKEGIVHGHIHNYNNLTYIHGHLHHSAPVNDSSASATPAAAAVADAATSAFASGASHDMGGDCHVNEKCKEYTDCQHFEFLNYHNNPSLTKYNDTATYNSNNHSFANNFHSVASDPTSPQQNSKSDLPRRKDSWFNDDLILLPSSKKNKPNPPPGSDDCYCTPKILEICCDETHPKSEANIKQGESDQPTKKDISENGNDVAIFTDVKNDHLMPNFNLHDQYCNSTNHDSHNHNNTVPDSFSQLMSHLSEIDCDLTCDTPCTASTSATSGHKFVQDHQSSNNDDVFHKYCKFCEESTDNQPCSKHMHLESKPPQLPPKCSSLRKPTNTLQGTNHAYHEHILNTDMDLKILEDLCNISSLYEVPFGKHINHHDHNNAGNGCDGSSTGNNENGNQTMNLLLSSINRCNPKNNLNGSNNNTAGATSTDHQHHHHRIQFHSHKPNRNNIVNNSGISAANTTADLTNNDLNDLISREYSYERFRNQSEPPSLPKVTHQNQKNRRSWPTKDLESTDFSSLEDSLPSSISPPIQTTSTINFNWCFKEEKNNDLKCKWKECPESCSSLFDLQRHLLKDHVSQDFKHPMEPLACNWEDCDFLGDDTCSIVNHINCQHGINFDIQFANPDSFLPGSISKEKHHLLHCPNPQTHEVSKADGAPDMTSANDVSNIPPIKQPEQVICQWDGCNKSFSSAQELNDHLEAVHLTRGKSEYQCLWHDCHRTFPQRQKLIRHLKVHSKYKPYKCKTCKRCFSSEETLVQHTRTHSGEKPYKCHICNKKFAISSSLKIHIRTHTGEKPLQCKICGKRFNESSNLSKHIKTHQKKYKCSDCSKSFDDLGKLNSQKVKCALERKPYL
Assay: PBM E-score (8-mer binding enrichment) (E-score (-0.5 to 0.5)); higher = stronger / more preferred TF binding; most listed sequences are background and not binding sites
Settings: protein concentration: 200 nM; construct: GST-full length
Method in brief: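 Universal all-10-mer Agilent arrays, fresh or stripped once, were converted to double-stranded form by primer extension. GST-tagged yeast transcription factors from PURExpress in vitro transcription/translation, full-length or DNA-binding domain only, were applied at about 100-200 nM and detected with fluorescent anti-GST. After masliner normalisation, the Universal PBM Analysis Suite scored each ungapped eight-base word together with its reverse complement by E-score.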

| Sequence | PBM E-score |
| --- | --- |
| CGGACACG | -0.0774 |
| AAATACAA | 0.219 |
| CGGGGGTC | -0.0576 |
| CACTTCGC | -0.196 |
| GCCTGTAC | -0.185 |
| CGACGAGA | -0.29 |
| CCGGCTCG | -0.22 |
| GGGAACCC | 0.284 |
| CATGAAAA | 0.276 |
| TACATCAA | 0.0714 |
| AGATTTGG | -0.094 |
| CCGACTCG | -0.171 |
| CACAACCA | 0.343 |
| GAGTGGGC | -0.143 |
| AATTCTGC | -0.061 |
| AAGCGGCG | -0.171 |
| AACACTGA | 0.213 |
| GCAGAGCC | -0.296 |
| CTATTGCC | -0.25 |
| AACTCATC | 0.0136 |
| GGGCTAAC | -0.067 |
| CGGCGTGC | -0.264 |
| GTAATCCA | -0.0149 |
| CCGTTCAA | -0.0212 |
| AACGGAAG | -0.121 |

| Sequence | PBM E-score |
| --- | --- |
| AGAATCAA | -0.0486 |
| CCGAAACC | 0.0667 |
| ACTCCATG | -0.248 |
| CACGCTAG | -0.21 |
| GTGCTACA | -0.104 |
| CTTGGCCC | -0.21 |
| CATCTGCA | -0.172 |
| GGATCCCC | -0.152 |
| GTTGCCCA | -0.0028 |
| AGCTTGTG | 0.0149 |
| TTCGAAAA | 0.151 |
| AGGATGAG | -0.0639 |
| TAGCAGAA | 0.158 |
| ATTTAGCA | 0.0848 |
| ACGTGGAA | 0.00571 |
| CCTCTGGC | 0.0164 |
| AGGGAGAC | -0.28 |
| ATACTCCC | -0.109 |
| AAGTAGTA | -0.129 |
| ACCAAGAA | 0.233 |
| CGCGAATC | -0.027 |
| ATGTCCCC | 0.00249 |
| AAGGCTCT | -0.178 |
| CACTCACC | -0.0852 |
| AGAAGAAT | -0.0761 |

| Sequence | PBM E-score |
| --- | --- |
| AGTCCCCC | -0.386 |
| ATTACTTC | -0.152 |
| CCTTTGGA | 0.0536 |
| AGGATAGA | 0.0204 |
| AGATCCCC | -0.182 |
| CCTAATCA | 0.176 |
| CTTATATC | 0.119 |
| CTCTTAAA | 0.0701 |
| ATGGCATA | -0.0458 |
| AGTCTCGG | -0.0008 |
| AGCCCATG | 0.0154 |
| CGACTATA | -0.071 |
| CTATCCAC | -0.144 |
| ACACACGA | -0.0681 |
| AGCCCTAA | -0.00909 |
| ACTGGATC | -0.0832 |
| CGCCACTC | -0.113 |
| CAGATCAG | -0.0403 |
| ATACTGCA | -0.0688 |
| AAAGCGCC | -0.165 |
| CGTTCCTA | -0.0229 |
| AAATGAAT | -0.047 |
| AGATAATA | 0.0204 |
| AAACGTGG | -0.13 |
| AGAGAAAT | -0.15 |

| Sequence | PBM E-score |
| --- | --- |
| GAGGTGCA | -0.151 |
| ACCATGAT | 0.218 |
| CTAGTCAA | -0.213 |
| CGGCCAAG | -0.192 |
| GGGTAGAC | -0.0919 |
| TTGGCAAA | 0.0688 |
| CTCTTGCA | -0.161 |
| TAATGGCA | 0.0922 |
| ATCTCACC | -0.0161 |
| ACATCCTC | -0.0838 |
| ACCTTGAC | 0.266 |
| CGCTCGCC | -0.149 |
| CTCCGCGA | -0.0822 |
| AGTCTCCA | -0.158 |
| CTGTATTC | 0.0469 |
| GCTCAAGA | -0.173 |
| GGTGTGTA | 0.0237 |
| CCGATGAG | -0.14 |
| CCGAATCC | -0.00486 |
| CCATTGCC | 0.0848 |
| ACGCTAAT | -0.0866 |
| ATCTCAAT | 0.0751 |
| ACAGTGCT | 0.0524 |
| CAGGACGG | -0.119 |
| ATTTAAAC | 0.239 |

| Sequence | PBM E-score |
| --- | --- |
| AGTCACTG | -0.112 |
| GGCTGGAC | -0.214 |
| CTCCTTAA | -0.107 |
| ACGAACTC | 0.0404 |
| ATATGTCG | -0.00795 |
| TAACCTTA | 0.39 |
| CGTGTTCA | 0.0746 |
| GGTGGTGA | 0.23 |
| AATATACA | 0.126 |
| GGACGGTA | 0.022 |
| AGGACGAT | -0.0331 |
| CACGCGAC | -0.145 |
| AGGAACCG | 0.0672 |
| CGCGCATA | 0.00495 |
| ATCGGAAT | 0.0145 |
| ACATAAGG | 0.0989 |
| CCTCTGGA | 0.106 |
| GCCTGTCA | -0.177 |
| CCGTTCGC | -0.0498 |
| AACTGACG | -0.173 |
| CACATAAC | 0.284 |
| AGTTGAAG | -0.137 |
| CCGCAGCC | 0.0175 |
| AAGCAACC | 0.221 |
| ACACCCTA | 0.335 |

| Sequence | PBM E-score |
| --- | --- |
| AACACATC | 0.0331 |
| GGTTACTA | 0.447 |
| ATCCGACG | -0.171 |
| AGAGCGCT | -0.183 |
| GCGACGAA | 0.0484 |
| ACGTAAAA | 0.0729 |
| CCTTTAAA | 0.175 |
| AAGCAATG | 0.0748 |
| TAAGGCTA | 0.0834 |
| AAGAGATT | -0.163 |
| CCGCACGC | -0.21 |
| ACCTTACA | 0.284 |
| GGAGATAA | 0.0611 |
| ATAGTGCC | -0.0934 |
| CCCTTGTC | 0.0604 |
| AGGATCCC | -0.0702 |
| GCTCCTAA | -0.175 |
| ACACGCAG | -0.123 |
| GGGATAAA | 0.232 |
| GCAACTGA | -0.0509 |
| GTCGGAAC | 0.00238 |
| GCTCAGAA | 0.194 |
| CCCTCGCA | -0.0324 |
| GGTCAAAC | 0.234 |
| ACTTTAAG | 0.128 |

| Sequence | PBM E-score |
| --- | --- |
| CCTTTTGC | 0.228 |
| ACGCCTGC | -0.274 |
| GCATCCGC | -0.114 |
| CCTCACTA | 0.0133 |
| AAACAGAA | 0.0736 |
| ATCGGCCC | -0.134 |
| TATTAGGA | 0.0916 |
| AATTCCAA | 0.055 |
| CTCATACA | -0.0881 |
| CGGCGTAA | 0.00864 |
| CTTCCAGA | -0.0848 |
| GCATGTGA | -0.149 |
| ATGGGTCG | 0.0454 |
| GACATGCA | -0.0782 |
| GTCGCATA | 0.0804 |
| CGACAGCA | -0.0872 |
| AGGCCTTC | -0.0507 |
| CGACCTTC | 0.0461 |
| ACCTGAGT | 0.0343 |
| AGATACAG | 0.0524 |
| GATCTCGA | -0.127 |
| ACTGGCAG | -0.215 |
| CAGGAATC | -0.0261 |
| TATAATGA | 0.105 |
| ATTAAGTG | 0.162 |

| Sequence | PBM E-score |
| --- | --- |
| GGTTCAAA | 0.0699 |
| CGCACCAG | -0.00742 |
| AGAACCAG | 0.0863 |
| CGTATCCC | 0.0228 |
| GCGCGGGA | -0.13 |
| GCGCCACC | -0.00555 |
| ATTTCATC | 0.135 |
| GCGTTACA | 0.126 |
| ATCTGTGG | -0.207 |
| GCAGCAGA | -0.141 |
| ATAATCCG | -0.0477 |
| GTTTTCTA | 0.151 |
| AGTACTTC | 0.148 |
| GCCCTGTA | -0.0104 |
| GAAAAAGA | 0.148 |
| ATTCCGGA | 0.0632 |
| GCAAAAAA | 0.21 |
| CAGAGGAG | -0.276 |
| CAACGCTC | -0.0729 |
| CCTTGGCC | -0.269 |
| GCATATTA | 0.0185 |
| AGTCGTAG | -0.0544 |
| GCGTTTCC | -0.205 |
| GAGTTCTA | 0.0389 |
| ATGATTCG | -0.0783 |

| Sequence | PBM E-score |
| --- | --- |
| CTACCTTA | 0.327 |
| TACAGGAA | 0.101 |
| GTACGTCA | -0.216 |
| AGCGTGAT | -0.0712 |
| ATTGGCCG | -0.236 |
| CCTTTCAC | 0.103 |
| CAGACGCC | -0.0695 |
| AGGCGAAG | -0.288 |
| CCGCCCAA | -0.106 |
| GCGTTCCA | -0.145 |
| ATTTGCAG | 0.113 |
| ACATTGCT | 0.0363 |
| CGGTCCTA | -0.0133 |
| TGGGGAAA | 0.0534 |
| AATTCTAA | 0.149 |
| CTTGTTGA | 0.124 |
| AAACATCG | -0.172 |
| GGATTCAA | -0.191 |
| CATAAAAA | 0.171 |
